# Reference: PubChem BioAssay AID651820 (National Center for Advancing Translational Sciences (NCATS), 2012)
# In all, about 340,000 compounds went through this assay and about 12,000 (3.5%) were called active. The inconclusive results got no clear call from the source; some entries with a clear call stand among them for comparison. Calls follow the shape of the dose curve; as a rule, active = well fitted inhibition curve with a large enough effect; inconclusive = small, poorly fitted or top-dose-only effect, or another doubt; inactive = no such curve, though single readings can be large or run the other way. No potency is given beside an inconclusive call; the fits are too rough.
# Experiment: qHTS Assay for Inhibitors of Hepatitis C Virus (HCV)
# Conditions: Huh7.5.1 HCVcc-Cre (HCVcc is cell-culture hepatitis C virus) infection, luciferase reporter, 44 h; activity change, negative = inhibition: at 41.8 µM (top of the series) unless noted
# In short: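 Antiviral activity was scored by luciferase reporter output from cells infected with HCVcc-Cre (~0.5 moi) in presence of compound, 44 h infection period, cells seeded 1,000/well 4 h prior.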
# % is scaled to controls: 0 for no effect and ±100 for the full control effect; potency is read from the fitted curve at half-maximal effect; tags tell the direction and shape of the fitted curve.
Compound,Potency,"activity change, negative = inhibition"
COc1ccc(C(=O)/C=C/c2ccccc2OC)c(OC(=O)c2ccc([N+](=O)[O-])cc2)c1,active: 12.6 µM,–
Cc1cccc2c(SCC(N)=O)nc(-c3ccccc3)nc12,active: 7.08 µM,–
O=C(CSc1nnnn1C1CCCC1)NCc1ccc2c(c1)OCO2,–,inactive: 10.7%
Cc1ccc(C)c(S(=O)(=O)N2CCN(C(=O)CCNS(=O)(=O)c3ccc(C)c(C)c3)CC2)c1,"inconclusive [inhibitor, single point]",–
OC(CNCCc1ccccc1)COc1ccc(OCC(O)CNCCc2ccccc2)cc1 (stereo not given),"inconclusive [inhibitor, full curve, poor fit]",–
CCN(CC(=O)NCc1cccs1)C(=O)CCOc1ccccc1,–,inactive: 2.87%
O=C(COC(=O)c1ccccc1S(=O)(=O)N1CCCCC1)NCC(F)(F)F,–,inactive: -3.21%
COc1ccc(C2c3c(ncn(CCCO)c3=N)Oc3ccc4ccccc4c32)cc1 (stereo not given),–,inactive: -29.5%
CC(C)NC(=O)C1CCN(C(=O)c2cc3sccc3n2Cc2ccc(F)cc2)CC1,"inconclusive [inhibitor, single point]",–
CCCCn1c(SCc2nc3ccccc3s2)nc2cc(S(N)(=O)=O)ccc21,"inconclusive [inhibitor, partial curve]",–
S=c1[nH]nc(-c2ccn[nH]2)n1-c1ccccc1Cl,–,inactive: -5.45%
CN(C)C(=O)c1cc(C(=O)c2ccccc2Cl)c[nH]1,–,inactive: -1.55%
Cc1c(OCC(F)(F)F)ccnc1CS(=O)c1nc2ccccc2[nH]1 (stereo not given),"inconclusive [inhibitor, partial curve]",–
CCOc1ccc2nc(N(CCN(CC)CC)C(=O)/C=C/c3cccs3)sc2c1,"inconclusive [inhibitor, partial curve]",–
CCN(CC)S(=O)(=O)c1ccc(NC(=O)C2c3ccccc3Oc3ccccc32)cc1,"inconclusive [inhibitor, single point]",–
COc1ccccc1CNC(=O)COC(=O)c1c(C)nn(-c2ccccc2)c1Cl,active: 11.2 µM,–
COc1ccccc1-c1sc2ccccc2c1C#Cc1ccc(N(C)C)cc1,–,inactive: 4.56%
Cc1ccccc1-c1nc(CN2CCC(C(=O)NCc3cccnc3)CC2)c(C)o1,"inconclusive [inhibitor, full curve, poor fit]",–
CCOc1ccc(N(CC)C(=O)COc2cc(=O)n(CC)c3ccccc23)cc1,"inconclusive [inhibitor, single point]",–
COc1ccc2c(c1OC)CN1CCc3cc4c(cc3[C@H]1C2)OCO4,active: 11.2 µM,–
CC1CCc2sc(C(=O)NC(C)C3CCCO3)cc2C1 (stereo not given),–,inactive: 5.97%
COc1ccc(-n2c(N)c(C(=O)NCc3ccco3)c3nc4ccccc4nc32)cc1,"inconclusive [inhibitor, full curve]",–
CC1(C)Cc2c(ccc3ccccc23)/C(=C/C#N)N1,"inconclusive [inhibitor, single point]",–
COc1ccc(-c2cc(OC)c3c(C)oc(C)c3c(=O)c2)cc1OC,"inconclusive [inhibitor, single point]",–
Cc1ccccc1-n1c(SCc2ccccn2)nc2n[nH]c(C)c2c1=N,active: 11.2 µM,–

Compound,Potency,"activity change, negative = inhibition"
Cc1ccc(NC(=S)N(Cc2ccco2)C2CCN(C(C)C)CC2)cc1,"inconclusive [inhibitor, partial curve]",–
COCCN(Cc1cc2cc(C)cc(C)c2nc1Cl)C(=O)Nc1ccccc1,"inconclusive [inhibitor, full curve]",–
COC(=O)c1c(NC(NC(=O)C(C)(C)C)C(Cl)(Cl)Cl)sc2c1CCC2 (stereo not given),"inconclusive [inhibitor, single point]",–
O=C(c1cccc(F)c1)N1CCN(c2ccc([N+](=O)[O-])c3cccnc23)CC1,"inconclusive [inhibitor, single point]",–
COC(=O)c1ccccc1NC(=O)COC(=O)c1ccccc1N=Nc1ccc(N(C)C)cc1,–,inactive: -4.85%
O=C(Cc1cccc(NC(=O)C2CCCN(C(=O)CCc3ccccc3)C2)c1)Nc1ccc(C(=O)N2CCCCC2)cc1 (stereo not given),"inconclusive [inhibitor, partial curve, poor fit]",–
Cc1ccc(C)c(N=Cc2ccc(-c3ccc([N+](=O)[O-])cc3)o2)c1,"inconclusive [inhibitor, partial curve]",–
Cc1cc(N2CCCCCC2)nc2ccccc12,–,inactive: -4.3%
COc1ccc2nc3n(c(=O)c2c1)-c1cc(C)ccc1C(=O)NC3Cc1ccc(O)cc1 (stereo not given),–,inactive: 15.7%
CC(C)(C)c1cc(NCc2ccccn2)n2ncc(-c3ccc(Cl)cc3)c2n1,"inconclusive [inhibitor, full curve, poor fit]",–
COC(=O)C(Cc1ccccc1)NC(=O)c1cc(S(=O)(=O)N(C)C)ccc1Cl (stereo not given),–,inactive: -27.7%
COc1ccc(OCC(O)Cn2cnc(-c3ccc(Br)cc3)c2)cc1 (stereo not given),"inconclusive [inhibitor, single point]",–
O=C(COc1ccc2oc(-c3ccccc3)cc(=O)c2c1)NCc1ccco1,"inconclusive [inhibitor, single point]",–
Nc1ccc(Br)cc1-c1nc2ccccc2[nH]c1=O,–,inactive: -13.5%
COC(=O)c1ccc(-c2sc3nc(N4CCOCC4)c4c(c3c2N)CCCC4)o1,"inconclusive [inhibitor, partial curve]",–
O=c1c2c3c(sc2nc2n1CCCC2)CCCC3,–,inactive: -14.5%
O=c1oc2ccccc2c2c1ncn2-c1ccccc1,"inconclusive [inhibitor, single point]",–
COCCCN=C1NN=C(c2cc(C)n(-c3ccccc3)c2C)CS1,"inconclusive [inhibitor, partial curve]",–
CCc1ccc(C2CC(c3ccccc3)Nc3nc(N)nn32)cc1 (stereo not given),–,inactive: 1.87%
Cc1csc(NC(=O)c2ccc3nc[nH]c3c2)n1,–,inactive: -10.2%
O=C(C[n+]1ccccc1)Nc1nc2ccccc2s1,–,inactive: 14.7%
O=C(Cc1ccccc1)Nc1nnc(-c2ccco2)s1,"inconclusive [inhibitor, single point]",–
O=C(Cn1cc(S(=O)(=O)Cc2ccccc2F)c2ccccc21)N1CCOCC1,–,inactive: 4.33%
CSCC(=O)Nc1ccc(F)c(Cl)c1,–,inactive: 11.7%
CCOC(=O)C1(CCOc2ccccc2)CCN(Cc2cc(OC)ccc2OC)CC1,"inconclusive [inhibitor, single point]",–

Compound,Potency,"activity change, negative = inhibition"
Cc1cc(N2CCCCC2)nc(N2CCCCC2)n1,–,inactive: 2.98%
COc1ccc(C(=O)COc2ccc(F)cc2)c(O)c1,–,inactive: 5.07%
O=C1/C(=C/c2ccc(O)cc2)COc2ccccc21,–,inactive: 5.57%
O=C(OCC(=O)N1CCN(c2ccccc2)CC1)c1ccc[n+]([O-])c1,–,inactive: -10.4%
CCC(C)(C)NC(=O)CN(C(=O)c1ccc(N2CCCC2)nc1)c1ccc(F)cc1,–,inactive: 6.29%
O=C(NNC(=O)c1ccc(Cl)s1)c1csc(N2CCOCC2)n1,"inconclusive [inhibitor, single point]",–
COc1ccc(C2(C)NC(=O)N(Cc3cc(Cl)cc4c3OCOC4)C2=O)cc1OC (stereo not given),"inconclusive [inhibitor, partial curve]",–
COc1ccc(CN2C(=O)c3cccnc3C2=O)cc1S(=O)(=O)N1CCCCC1,–,inactive: 26.5%
CCOC(=O)C1CCCN(C(=O)c2cc3nc(-c4cccc(OC)c4)cc(C(F)(F)F)n3n2)C1 (stereo not given),"inconclusive [inhibitor, partial curve]",–
COc1ccc(Cl)cc1NC(=O)C1CCCO1 (stereo not given),"inconclusive [inhibitor, single point]",–
Cc1ccc(N2C(=O)C3CC(c4ccccc4)=C4C5C=CC(C6C(=O)N(c7ccc(C)cc7C)C(=O)C56)C4C3C2=O)c(C)c1 (stereo not given),"inconclusive [inhibitor, single point]",–
O=C(Cc1ccccc1[N+](=O)[O-])NCCCc1ccccc1,–,inactive: 10.9%
O=C(Nc1ccc(Cl)cn1)c1cccc(F)c1,"inconclusive [inhibitor, full curve, poor fit]",–
COc1cccc(Nc2c([N+](=O)[O-])cncc2[N+](=O)[O-])c1,–,inactive: -5.84%
COc1ccc(N=c2cc(-c3ccc(OC)cc3)oc3ccccc23)cc1,"inconclusive [inhibitor, single point]",–
C=CCOc1nc2c(c(=O)n(C)c(=O)n2C)n1Cc1ccc(Cl)cc1Cl,"inconclusive [inhibitor, partial curve]",–
CCOC(=O)N1CCC(N(CCN(C)C)C(=S)Nc2ccc(F)c(Cl)c2)CC1,–,inactive: -5.67%
COc1cc2[nH]c(C(=O)N3CCC(Cc4ccccc4)CC3)cc2c(OC)c1OC,"inconclusive [inhibitor, single point]",–
O=C(Cn1cc(C(=O)c2ccccc2)c2ccccc21)NCc1ccco1,"inconclusive [inhibitor, partial curve]",–
OCc1cccc(Nc2ncnc3sc4c(c23)CCCCC4)c1,–,inactive: -21.4%
Cc1ccc(-c2nc(CS(=O)CC(=O)N3CCN(c4ccc(F)cc4)CC3)c(C)o2)cc1 (stereo not given),"inconclusive [inhibitor, single point]",–
O=C(c1ccc(-c2ccccc2)c(F)c1)C1CCCN(C(=O)c2cncs2)C1 (stereo not given),–,inactive: -7.51%
O=C(CSc1nc(-c2ccccc2)cc(C(F)(F)F)n1)NCc1ccco1,"inconclusive [inhibitor, partial curve]",–
N/C(=N\OC(=O)c1ccc(Cl)cc1)c1ccccn1,"inconclusive [inhibitor, partial curve]",–
O=C(O)CCNC(=O)/C(=C/C=C/c1ccccc1)NC(=O)c1ccccc1,–,inactive: 9.56%
